PMC9792439 (Biochimica et biophysica acta. General subjects, 2022)

B1: GST-UBQLN2 P497H (natural protein)
chain: not shown
B2: GST-P497S-UBQLN2 (natural protein)
chain: not shown
B3: GST-UBQLN2 P509S (natural protein)
chain: not shown
B4: GST-UBQLN2 P525S (natural protein)
chain: not shown
B5: GST-UBQLN2 P506T (natural protein)
chain: not shown

Each binder was assayed against full-length human HSPA1B tagged at its C-terminus with 6 His residues (human, UniProt P0DMV9) (assay: pull-down).

binding result	Binder
binds	B1
binds	B2
binds	B3
binds	B4
binds	B5
